# According to FireProtDB (doi:10.1021/bi980270i):
# Conditions: Homo sapiens; pH 7.4; 20 °C; GdnHCl; CD; Sodium phosphate 50 mM; reversible: yes (100%)
substance,measurement,value
Immunoglobulin heavy constant gamma 1 wild type (sequence left out),denaturant m value,2.8 kcal/mol/M
same,denaturant midpoint (higher = more stable),3.25 M
same,unfolding free energy,9.1 kcal/mol
